# Among all 310,000 compounds or so, about 2,200 (0.71%) showed an effect of 50% or more. Effects have a minus sign here. This is one part of the list.
# Biological target: human ether-à-go-go-related gene (hERG) potassium channel (human, UniProt Q12809)
# Experiment: primary screen, population patch clamp on CHO cells stably expressing hERG
# Sequence of human ether-à-go-go-related gene (hERG) potassium channel (Q12809 whole entry, looked up): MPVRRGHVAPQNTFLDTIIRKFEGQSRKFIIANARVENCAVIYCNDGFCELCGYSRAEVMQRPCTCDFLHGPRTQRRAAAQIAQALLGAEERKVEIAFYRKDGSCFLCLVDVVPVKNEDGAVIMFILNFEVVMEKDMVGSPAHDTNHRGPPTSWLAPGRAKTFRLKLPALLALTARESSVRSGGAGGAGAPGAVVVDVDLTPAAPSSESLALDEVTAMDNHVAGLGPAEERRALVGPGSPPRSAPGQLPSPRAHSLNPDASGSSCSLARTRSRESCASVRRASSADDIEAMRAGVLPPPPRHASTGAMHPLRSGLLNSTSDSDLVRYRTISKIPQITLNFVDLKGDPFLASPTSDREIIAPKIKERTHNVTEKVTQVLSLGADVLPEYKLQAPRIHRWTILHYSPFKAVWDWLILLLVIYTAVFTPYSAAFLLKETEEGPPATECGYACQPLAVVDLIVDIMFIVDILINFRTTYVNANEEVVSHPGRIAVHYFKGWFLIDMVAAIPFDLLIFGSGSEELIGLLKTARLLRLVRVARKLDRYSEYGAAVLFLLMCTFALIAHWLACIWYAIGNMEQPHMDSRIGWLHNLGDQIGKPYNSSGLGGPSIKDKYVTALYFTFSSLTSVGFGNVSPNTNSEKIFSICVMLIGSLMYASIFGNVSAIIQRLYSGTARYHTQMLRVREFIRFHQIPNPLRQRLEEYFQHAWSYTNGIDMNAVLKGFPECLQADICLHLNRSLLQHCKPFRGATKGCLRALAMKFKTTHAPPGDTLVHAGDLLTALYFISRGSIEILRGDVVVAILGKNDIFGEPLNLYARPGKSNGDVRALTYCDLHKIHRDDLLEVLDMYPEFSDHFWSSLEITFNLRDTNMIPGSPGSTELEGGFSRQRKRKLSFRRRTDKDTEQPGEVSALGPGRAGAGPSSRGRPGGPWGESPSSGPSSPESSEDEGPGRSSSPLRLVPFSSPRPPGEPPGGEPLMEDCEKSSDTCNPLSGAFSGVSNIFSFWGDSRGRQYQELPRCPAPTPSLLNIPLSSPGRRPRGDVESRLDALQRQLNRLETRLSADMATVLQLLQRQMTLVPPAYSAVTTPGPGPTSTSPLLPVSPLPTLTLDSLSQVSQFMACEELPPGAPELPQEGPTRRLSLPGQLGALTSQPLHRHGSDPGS
row,Structure (SMILES),"hERG current change (%, negative = inhibition) at 1uM [%]"
1,O=C(NCc1cccs1)c1cc2c(s1)CS(=O)(=O)C2,11.8
2,Cc1cc(NC(=O)C2CC(=O)N(c3ccc(Cl)cc3)C2)no1 (centres unmarked),1.83
3,CCOC(=O)CN(C(=O)CNC(=O)c1cccs1)C(C(=O)NC1CCCCC1)c1cccnc1 (centres unmarked),16.8
4,COc1ccc(NC2c3ccccc3C(=O)N2Cc2ccccc2Cl)cc1OC (centres unmarked),0.0007
5,CC(C)(C)C(=O)N1CCN(c2ccc([N+](=O)[O-])cc2-n2cccc2)CC1,-11
6,Cc1ccc(S(=O)(=O)N2CCCOC2CNC(=O)C(=O)NC2CCCCC2)cc1 (centres unmarked),8.66
7,CCC1Sc2ccccc2N(CC(=O)NCc2ccccc2OC)C1=O (centres unmarked),-3.35
8,Cc1onc(-c2ccccc2)c1C(=O)N1CCCSC1=Nc1ccccc1,14.6
9,O=C(CCCOc1ccc(Cl)cc1)Nc1cccc(C(=O)O)c1,13.4
10,CSc1c(C#N)sc(=S)n1-c1ccc(C)cc1,2.35
11,Cc1cc(C)c2cc(C#N)c(NCCNC(=S)NCCCN3CCOCC3)nc2c1,-3.05
12,Cc1cc(C(=O)COC(=O)c2ccccc2NCCO)c(C)n1CC1CCCO1 (centres unmarked),2.47
13,CC(=O)N1CCN(c2cccc(C)c2C)CC1,1.34
14,COc1ccc(OCC(=O)N/N=C(\C)c2ccc(-n3ccnc3)cc2)cc1,0.479
15,Cc1ccnc(N2CCC(C(=O)NCc3ccc(F)cc3)CC2)n1,-2.26
16,Cc1cc(/C=C(\C#N)C(=O)Nc2ccc(Cl)cc2)c(C)n1-c1ccc(N2CCOCC2)c([N+](=O)[O-])c1,11.6
17,Cc1ccc(C(C)C)c(OCCCCCN2CCOCC2)c1,9.14
18,O=C(NCc1ccco1)c1ccccc1F,10.7
19,Cc1nnc(NC(=O)c2ccc3ccccc3c2)o1,12.9

row,Structure (SMILES),"hERG current change (%, negative = inhibition) at 1uM [%]"
1,CCOc1ccc2nc(NCCCNC(=O)c3cc(OC)c(OC)c(OC)c3)c(C#N)cc2c1,-8.59
2,O=C(N/N=C/c1ccncc1)C1CC1(c1ccccc1)c1ccccc1 (centres unmarked),5.86
3,CCCNC(=O)c1cccc(COCC(F)(F)F)c1,0.115
4,CCOc1ccccc1CN1CCNC(=O)C1CC(=O)NCCN1CCOC1=O (centres unmarked),14.7
5,O=C(N/N=C/c1c[nH]c2ccccc12)c1ccc2c(c1)OCCO2,1.84
6,O=C(O)C1CCCCC1C(=O)NCc1ccccn1 (centres unmarked),15
7,COc1ccc(NC(=O)COC(=O)CCCN2C(=O)c3ccccc3C2=O)cc1Cl,-7.27
8,O=C(CN1CCCCCCC1)N/N=C/c1ccccc1F,-2.15
9,Cc1[nH]c2ccc(C(=O)NCCCN3CCOCC3)cc2c1C,12
10,CCCCOc1ccc(S(=O)(=O)N2CCCCC2)cc1,6.97
11,Cc1cc(NC(=O)Cn2nnc(-c3ccccc3NC(=O)c3ccccc3F)n2)no1,14.1
12,CC(=O)c1cc2c(cc1NC(=O)CSc1ccc(S(=O)(=O)N(C)C)cn1)OCO2,10.3
13,CC(=O)CSc1nsc(SCC(C)=O)c1C#N,11.1
14,CC(=O)N1C(c2ccccc2)CC(=O)OC1c1ccc2c(c1)OCO2 (centres unmarked),9.84
15,O=C(/C=C/c1ccc(Cl)cc1)N1CCN(c2ccccc2[N+](=O)[O-])CC1,-33.6
16,CC(=O)c1ccc(OCc2cc(C(=O)N(C)Cc3nc4c(C)cccc4[nH]3)no2)cc1,4.57
17,O=C(CNCCCO)Nc1cc(C(F)(F)F)cc(NC(=O)CNCCCO)c1Cl,9.02
18,CCC(CC)c1nnc(NC(=O)c2cccnc2SC)s1,9.37
19,C=CCN1C(=O)/C(=c2\sc3nc(=O)c(Cc4ccccc4)nn3c2=O)c2ccccc21,11.5

row,Structure (SMILES),"hERG current change (%, negative = inhibition) at 1uM [%]"
1,N#C/C(=C(/O)c1ccc2c(c1)OCO2)c1nc2cc(C(F)(F)F)ccc2s1,7.79
2,CC(C)(C)NC(=O)C(c1ccccn1)N(C(=O)C1CSC(=O)C1)c1ccccc1F (centres unmarked),3.73
3,Cc1ccc(-n2nnc3c(=O)n(Cc4cc(C)ccc4C)cnc32)cc1,11.1
4,O=C(c1ccccc1NS(=O)(=O)c1ccc(Br)cc1)N1CCOCC1,2.86
5,CCc1nc(SCC(=O)Nc2ccccc2OC)c2c(C)c(C)sc2n1,12.6
6,Cc1ccc(NC(=O)COc2coc(CN3CCc4ccccc43)cc2=O)cc1Cl,16
7,CC1CCC2C(=O)N(c3ccccc3OC(=O)c3ccccc3F)C(=O)C2C1 (centres unmarked),11
8,O=c1cc(N2CCCCC2)nc2n1CCCS2,13.8
9,CN1CCc2c(sc3c2C(=O)NC(c2ccc(-c4ccc(Cl)cc4)o2)N3)C1 (centres unmarked),9.32
10,CCCCn1c(SCC(=O)c2ccc(O)cc2O)nc2cc(S(N)(=O)=O)ccc21,-11.7
11,CCOC(=O)N1CCN(C(=O)/C(=C/c2ccc(OC)cc2)NC(=O)c2ccccc2)CC1,-27.1
12,Cc1ccc(C(=O)OCC(=O)NC(=O)c2ccccc2)o1,9.2
13,Cc1ccc(NC(=O)Cn2cccc2C2=NC(c3ccccc3)CO2)c(C)c1 (centres unmarked),3.9
14,CCCCNc1ccc(C(CC(N)=O)NC(=O)c2ccccc2)cc1[N+](=O)[O-] (centres unmarked),1.7
15,CC(C)C(NC(=O)c1ccccc1)C(=O)OCC(=O)N1CCN(c2ccccc2)CC1 (centres unmarked),0.354
16,O=C(Oc1ccc(NC(=O)c2cc3c(cc2Br)OCO3)cc1)c1ccccc1,12.4
17,CCCCCCOc1ccc(N2C(=O)CC(N3CCN(CCN=CC4C(=O)CC(C)(C)CC4=O)CC3)C2=O)cc1 (centres unmarked),6.82
18,C/C(N)=C(/C#N)C(=O)COC(=O)C(c1ccccc1)c1ccccc1,12.5

# Reference: publication PMC4336329 (PLoS ONE, 2015)
